Assay results published in PubChem BioAssay AID686978 (National Center for Advancing Translational Sciences (NCATS), 2013).
Among all 420,000 compounds or so, about 64,000 (15%) were called active. The shares of active, inactive and inconclusive entries below differ from those in the screen. Calls come from the whole dose curve; as a rule, active = well fitted inhibition curve with a large enough effect; inconclusive = small, poorly fitted or top-dose-only effect; inactive = flat fitted curve, though single readings scatter. Potencies of inconclusive entries are left out as doubtful fits.

Assay: qHTS for Inhibitors of human tyrosyl-DNA phosphodiesterase 1 (TDP1): qHTS in cells in absence of CPT; note: nearly all actives have a fitted effect of over 55% in size
Conditions: DT40 Tdp1-/- hTDP1 cells, no CPT, ATP luminescence, 48 h; activity change, negative = growth inhibition: at 46.2 µM (top of the series) unless noted
Procedure, shortened: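 Readout: luminescence from CellTiter-Glo after 30 min in the dark at RT. Cells: DT40 Tdp1-/- with stable hTDP1, 400/well. Exposure: compounds alone, ≥48 hr, 37 °C.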
% is set by controls: 0 for no effect and ±100 for the full control effect; potency is the fitted concentration of half-maximal effect; tags give direction and shape of the fitted curve.

Compound	Potency	activity change, negative = growth inhibition
Cc1ccc(OCc2ccc(C(=O)N3CCCC3)o2)c([N+](=O)[O-])c1	inconclusive [inhibitor, single point]	–
Cc1ncc(CO)c(/C=N/NC(=O)c2cc(Br)ccc2O)c1O	active: 16.4 µM	–
Cc1ccc(S(=O)(=O)N2CCOC2CNC(=O)C(=O)NCCN2CCOCC2)cc1 (stereo not given)	inactive	–
Cc1cccc(-n2ccnc2SCC(=O)Nc2nccs2)c1C	active: 16.4 µM	–
CCC(CNC(=O)c1c(C)nn(-c2ccccc2)c1Cl)c1ccccc1 (stereo not given)	active: 20.6 µM	–
N#Cc1ccc(-c2nc3c4ccccc4ccn3c2Cc2ccccc2C(F)(F)F)cc1	inconclusive [inhibitor, single point]	–
Cc1nc(SCC(=O)c2cc3ccccc3oc2=O)c(C#N)c(-c2cccs2)c1C(=O)Nc1ccccc1	inconclusive [inhibitor, single point]	–
C(=C1C=c2ccccc2=C1)c1ccc(N=Nc2ccc(C=C3C=c4ccccc4=C3)cc2)cc1	inactive	–
O=C(c1cc(C(F)(F)F)cc(C(F)(F)F)c1)N1CCC2(CCCN(Cc3nccs3)C2)CC1	inconclusive [inhibitor, single point]	–
CN(C)CCn1c(=N)n(CC(O)c2ccc(Cl)c(Cl)c2)c2ccccc21 (stereo not given)	active: 23.1 µM	–
COc1ccc2c(-c3ccccc3)cc(SCC(=O)NC(N)=O)nc2c1	inactive	–
COc1ccc(S(=O)(=O)N(C)Cc2nc(-c3cccc(C)c3)no2)cc1	inconclusive [inhibitor, single point]	–
Cc1nc2c(c(C)nn2-c2ccccc2)c(C)c1C	inactive	–
O=C(CSc1nc2ccsc2c(=O)n1Cc1ccccc1F)NCc1ccccc1	inconclusive [inhibitor, partial curve]	–
O=C(NCc1ccccc1)C(c1ccccc1)n1c(-c2ccccn2)nc2ccccc21 (stereo not given)	inactive	–
CCSc1nnc(NC(=O)C2CCN(S(=O)(=O)c3ccccc3C(F)(F)F)CC2)s1	inconclusive [inhibitor, partial curve]	–
CCOc1cc(C(=O)OCC(=O)Nc2cc(C)on2)cc(OCC)c1OCC	inactive	–
COC(=O)[C@@]12C[C@@H](CC(=O)NCCC(C)C)C(=O)N(Cc3ccccc3)C1=CCC(C)(C)C2	inconclusive [inhibitor, single point]	–
O=[N+]([O-])c1cc(-c2csc(NCCc3nc4cc(C(F)(F)F)ccc4n3CCCO)n2)ccc1Cl	inconclusive [inhibitor, single point]	–
CC(=O)N1CCc2cc(Br)cc(S(=O)(=O)NCCCN(C)Cc3ccccc3)c21	–	inconclusive: -32.2% [inhibitor]
CCOc1ccc2c(c1)sc(N)[n+]2Cc1cc(C)cc2cccnc12	active: 1.03 µM	–
O=C(NCC1CCCO1)C(=O)NCC(c1ccco1)N1CCN(c2ccccc2)CC1 (stereo not given)	inactive	–
COc1ccc(NC(=O)c2nc(-n3nc(C)cc3C)ccc2Cl)cc1Cl	inconclusive [inhibitor, single point]	–

Compound	Potency	activity change, negative = growth inhibition
NC(=O)CN1CCN(c2nc(-c3ccc(F)cc3)cs2)CC1	inconclusive [inhibitor, single point]	–
COc1cc(/C=N/NC(=O)c2ccccc2O)ccc1OCC(=O)Nc1ccccc1	inconclusive [inhibitor, partial curve, poor fit]	–
O=S1(=O)CCOCCN1Cc1ccccc1	inactive	–
O=C(N/N=C/c1c(Cl)[nH]c2ccccc12)c1ccc2c(c1)OCCO2	inconclusive [inhibitor, single point]	–
CCc1ccc(NC(=O)CN2C(=O)C(c3ccccc3)=NC23CCCCCC3)cc1	inconclusive [inhibitor, single point]	–
COc1cc(OC)cc(C(=O)N[C@H](C(=O)Nc2nnc(C3CC3)s2)C(C)C)c1	inactive	–
O=C(Nc1cccc(N=Cc2cc(Br)cc(Br)c2O)c1)c1ccco1	inconclusive [inhibitor, single point]	–
Cc1cc(C(=O)NNC(=S)NC(=O)/C=C/c2ccccc2Cl)n[nH]1	inconclusive [inhibitor, single point]	–
CCOC(=O)c1c(COC(=O)c2ccco2)nc2ccccc2[n+]1[O-]	–	inconclusive: -31.6% [inhibitor]
O=C(NCc1nc(-c2ccc(C(F)(F)F)cc2)no1)Nc1cc(Cl)cc(Cl)c1	active: 11.6 µM	–
C=CCn1c(=N)n(CC(=O)c2ccc(OC)cc2)c2ccccc21	inconclusive [inhibitor, single point]	–
COc1ccc(NC(=O)CCn2nnc(-c3ccc(C)cc3)n2)cc1OC	inconclusive [inhibitor, single point]	–
CCOc1ccccc1N1CCN(C(=O)CN2C(=O)NC3(CCCC3)C2=O)CC1	inactive	–
N#C/C(=C/c1cn(-c2ccccc2)nc1-c1cccc(S(=O)(=O)N2CCOCC2)c1)C(=O)NCc1ccco1	inconclusive [inhibitor, partial curve]	–
CCOC(=O)C(C(=O)OCC)N(C#N)c1nc(OC)nc(N(C)C)n1	inconclusive [inhibitor, full curve, poor fit]	–
COc1ccccc1NS(=O)(=O)c1ccc(C)c(C(=O)NNC(=O)c2csc(N3CCOCC3)n2)c1	inactive	–
Cn1c2ccccc2c2cc(/C=N/NC(=O)c3cc(O)ccc3O)ccc21	active: 14.6 µM	–
CNCc1ccccc1OCc1ccc(F)cc1	inconclusive [inhibitor, single point]	–
Cc1ccc(CCNC(=O)C2CCN(S(=O)(=O)c3cccc4nsnc34)CC2)cc1	inactive	–
Cc1ccc(NS(=O)(=O)c2cccc3nsnc23)cc1C	inactive	–
CN(C)C(=S)Oc1ccccc1C1SCCS1	inconclusive [inhibitor, single point]	–
Cc1ccc(NC2=NC(=S)N(CC#N)C23CCCCC3)cc1	inconclusive [inhibitor, single point]	–
